{
  "source": "PubChem BioAssay AID1030",
  "about": "(National Center for Advancing Translational Sciences (NCATS), 2008)",
  "note": "Among all 220,000 compounds or so, about 16,000 (7.3%) were called active. This list was built around the results that the source calls inconclusive (neither active nor inactive); the mix of calls is not that of the screen. The call rests on the fitted dose curve; in most records, active means well fitted inhibition curve with a large enough effect (not every such curve was filed as active); inconclusive means small, poorly fitted or top-dose-only effect, or another doubt; inactive means no such curve, though single readings can be large or run the other way. Potencies of inconclusive entries are left out as doubtful fits. Potency means the concentration at half of the fitted maximal effect; tags describe the fitted curve by direction and shape.",
  "data": [
    {"biological_target": "Aldehyde dehydrogenase 1A1 (Homo sapiens) (UniProt P00352)", "sequence (P00352 whole entry, looked up)": "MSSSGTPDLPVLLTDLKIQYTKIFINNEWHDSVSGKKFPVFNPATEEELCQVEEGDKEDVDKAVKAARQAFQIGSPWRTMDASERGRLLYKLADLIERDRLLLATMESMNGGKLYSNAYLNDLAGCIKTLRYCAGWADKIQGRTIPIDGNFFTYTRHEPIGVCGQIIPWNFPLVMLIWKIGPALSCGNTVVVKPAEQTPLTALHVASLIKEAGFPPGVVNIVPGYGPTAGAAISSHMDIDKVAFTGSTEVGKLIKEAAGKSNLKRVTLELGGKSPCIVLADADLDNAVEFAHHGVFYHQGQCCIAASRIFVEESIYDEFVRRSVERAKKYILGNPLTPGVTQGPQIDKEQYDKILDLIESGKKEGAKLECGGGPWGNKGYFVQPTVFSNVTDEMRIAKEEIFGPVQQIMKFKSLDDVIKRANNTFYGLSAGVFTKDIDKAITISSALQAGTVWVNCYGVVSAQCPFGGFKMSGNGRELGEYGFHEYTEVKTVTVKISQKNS", "test": "qHTS Assay for Inhibitors of Aldehyde Dehydrogenase 1 (ALDH1A1);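 on activity, negative = inhibition: plate controls were no enzyme wells and a reference inhibitor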", "settings": "Purified ALDH1A1, NADH fluorescence, propionaldehyde substrate; series mostly up to 75.3 µM", "values": [
      {"smiles": "COc1ccc(N(C(=O)CCl)C(C(=O)NC2CCCCC2)c2cccnc2)cc1", "note": "(stereo unspecified)", "Potency": "inactive"},
      {"smiles": "COc1ccc(N2CCN(C(=O)NCc3ccc(OC)c(Cl)c3)CC2)cc1", "Potency": "inactive"},
      {"smiles": "CC1(C)CC(=O)C2=C(C1)OC(N)=C(C#N)C21CCN(Cc2ccccc2)CC1", "Potency": "inconclusive [inhibitor, single point]"},
      {"smiles": "Cc1occc1C(=O)NCCc1cccc(Cl)c1", "Potency": "inconclusive [inhibitor, partial curve]"},
      {"smiles": "COc1ccc(Cc2nnc(NC(=O)c3cccs3)s2)cc1OC", "Potency": "inactive"},
      {"smiles": "COC(=O)N1CCC2(CCCN(Cc3ccccc3)C2)CC1", "Potency": "inconclusive [inhibitor, full curve, poor fit]"},
      {"smiles": "Cc1nnc(SCCn2c(N3CCCCC3)nc3c2c(=O)[nH]c(=O)n3C)s1", "Potency": "inactive"},
      {"smiles": "CCOC(=O)CCCNC(=O)c1cncc(Br)c1", "Potency": "inactive"},
      {"smiles": "O=C(C(c1ccccc1)N1CCOCC1)N1CCOCC1", "note": "(stereo unspecified)", "Potency": "inconclusive [inhibitor, single point]"},
      {"smiles": "COc1ccc(CNC(=O)Cn2cc3c(n2)CCCCC3)cc1", "Potency": "active: 1.12 µM"},
      {"smiles": "CN(CCC#N)CC(=O)Nc1ccc(NC(=O)CN(C)CCC#N)cc1", "Potency": "inconclusive [inhibitor, single point]"},
      {"smiles": "CC1C(=O)NN=C1C(=O)N/N=C\\C(Br)=C\\c1ccccc1", "note": "(stereo unspecified)", "Potency": "inactive"},
      {"smiles": "COC(=O)c1sc2ccccc2c1NC(=O)c1ccc(S(=O)(=O)N2CCCCC2)cc1", "Potency": "inconclusive [inhibitor, single point]"},
      {"smiles": "Cc1ccc(N(C(=O)c2csnn2)C(C(=O)NC(C)(C)C)c2cccnc2)cc1", "note": "(stereo unspecified)", "Potency": "inactive"},
      {"smiles": "Cc1ccc(C(=O)CSc2nc3cccnc3n2C)cc1", "Potency": "inconclusive [inhibitor, single point]"},
      {"smiles": "COc1ccc(CS(=O)(=O)/C(Cl)=C(/Cl)C(=O)Nc2ccc(OC)nc2)cc1", "Potency": "active: 1.58 µM"},
      {"smiles": "CCc1nnc(NS(=O)(=O)c2ccc(N/C=C/C(=O)c3ccc(C)cc3)cc2)s1", "Potency": "inconclusive [inhibitor, single point]"},
      {"smiles": "CCn1c(SCC(=O)c2ccc(Br)cc2)nnc1C(C)NC(=O)Cc1ccc(OC)cc1", "note": "(stereo unspecified)", "Potency": "inactive"},
      {"smiles": "CCOC(=O)N1CCN(c2cc(=O)n(-c3cccc(C)c3)c(=O)[nH]2)CC1", "Potency": "inactive"},
      {"smiles": "CCOc1ccc(-c2nnc(-c3snc(-c4ccc(F)cc4)c3N=CN(C)C)o2)cc1", "Potency": "inconclusive [inhibitor, single point]"},
      {"smiles": "CCOC(=O)N1CCN(CCC(=O)Nc2ccc(OC(F)(F)F)cc2)CC1", "Potency": "inconclusive [inhibitor, single point]"},
      {"smiles": "CC(C)c1ccc(C2NC(C(=O)O)CS2)cc1", "note": "(stereo unspecified)", "Potency": "inconclusive [inhibitor, single point]"},
      {"smiles": "CCNC(=S)NC1CC2CCCC(C1)N2Cc1ccco1", "note": "(stereo unspecified)", "Potency": "inactive"},
      {"smiles": "NNC(=O)CC12CC3CC(C1)CC(n1ncnn1)(C3)C2", "Potency": "active: 2.82 µM"},
      {"smiles": "Cc1c2c(n3c(nc4ccccc43)c1C#N)N(CCN1CCOCC1)CC2", "Potency": "inconclusive [inhibitor, partial curve]"},
      {"smiles": "CCc1ccc(Cn2nnc(C(=O)Nc3ccc(OC)cc3OC)c2N)cc1", "Potency": "inconclusive [inhibitor, partial curve]"},
      {"smiles": "O=C(CN1CCOCC1)Nc1ccc(OCc2ccccc2)cc1", "Potency": "active: 12.6 µM"},
      {"smiles": "O=C(/C=C/c1cccc([N+](=O)[O-])c1)NCCSCc1c(Cl)cccc1Cl", "Potency": "inconclusive [inhibitor, partial curve]"},
      {"smiles": "CN(C)S(=O)(=O)c1ccc2c(c1)nc(CCC(=O)NCC1CCCCC1)n2C", "Potency": "inconclusive [inhibitor, partial curve]"},
      {"smiles": "Cc1ccccc1NC(=O)CC1(c2ccc(N(C)C)cc2)C(=O)c2ccccc2C1=O", "Potency": "active: 12.6 µM"},
      {"smiles": "CCCCSc1nnc(-c2ccccc2NC(C)=O)c(=O)[nH]1", "Potency": "inactive"},
      {"smiles": "CC(=O)Nc1ccc(S(=O)(=O)Nc2nccc(/C=C/c3ccc(Cl)cc3)n2)cc1", "Potency": "inconclusive [inhibitor, single point]"},
      {"smiles": "COc1ccc(CNC(=O)C(c2ccncc2)N(C(=O)Cc2cccs2)c2ccccc2C)cc1", "note": "(stereo unspecified)", "Potency": "inconclusive [inhibitor, single point]"},
      {"smiles": "CC(C)CCNC(=O)C(c1ccco1)N(Cc1ccccc1)C(=O)c1snc(C(N)=O)c1N", "note": "(stereo unspecified)", "Potency": "inconclusive [inhibitor, single point]"},
      {"smiles": "CCCC(=O)c1c[nH]c(C(=O)NCc2cccnc2)c1", "Potency": "active: 28.2 µM"},
      {"smiles": "COc1ccc(/C=C2\\N=C(C)OC2=O)cc1[N+](=O)[O-]", "Potency": "active: 17.8 µM"},
      {"smiles": "CCOc1ccc(N(CC)C(=O)c2nn(-c3ccc(OC)cc3)c(=O)c3c2c2ccccc2n3C)cc1", "Potency": "inconclusive [inhibitor, single point]"},
      {"smiles": "CCCCOC(=O)Nc1sc2c(c1C(=O)OC)CCC2", "Potency": "inconclusive [inhibitor, single point]"},
      {"smiles": "Fc1cccc(CSc2nc3ncccc3[nH]2)c1", "Potency": "inconclusive [inhibitor, partial curve]"},
      {"smiles": "O=C(CSc1nc2ccccc2c(=O)n1-c1ccccc1)NCc1ccco1", "Potency": "active: 4.47 µM"},
      {"smiles": "Cc1ccc(/C=N/NC(=O)CCSc2ccccc2)cc1", "Potency": "inactive"},
      {"smiles": "Cc1ccc(S(=O)(=O)N2CCCC(C(=O)N(Cc3cccs3)C3CC3)C2)cc1", "note": "(stereo unspecified)", "Potency": "active: 7.08 µM"},
      {"smiles": "COc1ccc(-n2c(=O)c(-c3cccs3)nc3cnc(Nc4cccc(OC)c4)nc32)cc1", "Potency": "inactive"},
      {"smiles": "O=C(CSCc1ccc(Cl)cc1)c1ccco1", "Potency": "inconclusive [inhibitor, single point]"},
      {"smiles": "COc1c(OC)c(O)c2c(=O)cc(-c3c(O)cccc3O)oc2c1OC", "Potency": "inconclusive [inhibitor, full curve]"},
      {"smiles": "COc1ccc(COC(=O)N/N=C2/C[C@@H](O)[C@@H](O)[C@@H]3[C@@H]4C(=O)N(C5CCCCC5)C(=O)[C@H]4CC[C@H]23)cc1", "activity, negative = inhibition": "inactive: -5.81% [at 13.5 µM]"},
      {"smiles": "Cc1[nH]c2ccccc2c1C(Nc1nccs1)c1ccncc1", "note": "(stereo unspecified)", "Potency": "inactive"},
      {"smiles": "CCCCOC(=O)c1ccc(-c2ccc(/C=N/NC(=S)NCC)o2)cc1", "Potency": "inconclusive [inhibitor, single point]"},
      {"smiles": "Cc1cc(C)cc(NC(=S)NC(=O)CCN2C(=O)c3ccccc3C2=O)c1", "Potency": "inconclusive [inhibitor, partial curve]"},
      {"smiles": "CCOc1cc(C)c(Cl)cc1S(=O)(=O)N1CCCC1", "Potency": "inactive"},
      {"smiles": "CC(CCc1ccccc1)NC(=O)C1CCN(S(=O)(=O)N2CCCCC2)CC1", "note": "(stereo unspecified)", "Potency": "inconclusive [inhibitor, partial curve]"},
      {"smiles": "COc1ccc(-c2cc(C(=O)NN)n(-c3ccccc3)n2)cc1", "Potency": "active: 8.91 µM"},
      {"smiles": "COc1cccc(/C=N/n2c(N)nc3ccccc32)c1OC", "Potency": "inconclusive [inhibitor, single point]"},
      {"smiles": "COCCN(C(=O)c1csnn1)C(C(=O)NC1CCCCC1)c1sccc1C", "note": "(stereo unspecified)", "Potency": "inconclusive [inhibitor, partial curve, poor fit]"},
      {"smiles": "COC(=O)CCCC(=O)O", "activity, negative = inhibition": "inactive: 3.39% [at 13.5 µM]"},
      {"smiles": "COC(=O)c1ccc(CS(=O)(=O)c2ccccc2C)o1", "Potency": "active: 2.24 µM"},
      {"smiles": "Cc1ccc(-c2csc(N3N=C(c4ccccc4)/C(=C\\c4ccc(N(C)C)cc4)C3=O)n2)cc1", "Potency": "active: 3.55 µM"},
      {"smiles": "CC(C)c1ccccc1NC(=O)COc1ccc(C(=O)NCCc2ccccc2)cc1", "Potency": "inactive"},
      {"smiles": "O=C(c1ccc(C(=O)N2CCCCCC2)cc1)N1CCCCCC1", "Potency": "active: 17.8 µM"},
      {"smiles": "O=C(CCCOc1ccc(Cl)cc1Cl)Nc1ccccn1", "Potency": "inactive"},
      {"smiles": "CCCC(=O)C1C(=O)CC(C)(C)C(c2cc(C)no2)C1=O", "note": "(stereo unspecified)", "Potency": "inactive"},
      {"smiles": "COc1ccc(NC(=O)c2nc3nccc(C)n3n2)cn1", "Potency": "inactive"},
      {"smiles": "O=C(CSc1nc(N2CCCCC2)nc(N2CCCCC2)n1)c1ccccc1", "Potency": "inconclusive [inhibitor, single point]"},
      {"smiles": "O=C(O/N=C\\c1ccc(N2CCCCC2)c([N+](=O)[O-])c1)c1ccc(Cl)cc1Cl", "Potency": "inconclusive [inhibitor, single point]"},
      {"smiles": "O=C1CCC(=O)N1CCC(c1ccc(F)cc1)c1ccco1", "note": "(stereo unspecified)", "Potency": "inactive"},
      {"smiles": "Cc1ccc(-n2cc(C(C)(C)C)[nH]c2=S)cc1", "Potency": "inactive"},
      {"smiles": "COC(=O)c1cc2oc(C)cc2n1CC(=O)Nc1ccc(C)c(C)c1", "Potency": "inconclusive [inhibitor, single point]"},
      {"smiles": "CCC(=O)N1CCN(c2ccc(NC(=S)NC(=O)c3ccc(OC)c([N+](=O)[O-])c3)cc2)CC1", "Potency": "active: 11.2 µM"},
      {"smiles": "CC(C)(Oc1ccc(Cl)cc1)C(=O)NCCN1C(=O)S/C(=C/c2cccnc2)C1=O", "Potency": "inconclusive [inhibitor, partial curve]"},
      {"smiles": "COc1ccc(-c2nc3cnc(N4CCNCC4)nc3n(Cc3cccs3)c2=O)cc1", "Potency": "inconclusive [inhibitor, partial curve]"},
      {"smiles": "O=C(OCn1nnc2ccccc2c1=O)C1CCN(S(=O)(=O)c2cccs2)CC1", "Potency": "inactive"},
      {"smiles": "NS(=O)(=O)c1ccc(NC=C2C(=O)OC3(CCCCC3)OC2=O)cc1", "Potency": "active: 1.89 µM"},
      {"smiles": "COc1ccc(NC(=O)COC(=O)/C=C/C(=O)OCC(=O)Nc2ccc(OC)c(Cl)c2)cc1Cl", "Potency": "active: 11.2 µM"},
      {"smiles": "O=C(NNC(=O)C1CCN(Cc2ccccc2)CC1)c1cccc(Cl)c1", "Potency": "inactive"},
      {"smiles": "CCN1C(=O)c2n[nH]c(C(=O)OC)c2C1=O", "Potency": "inconclusive [inhibitor, partial curve]"},
      {"smiles": "CC(=O)Nc1ccc(NC(=O)CSc2nnc(-c3ccco3)n2Cc2ccco2)cc1", "Potency": "active: 20 µM"}
    ]}
  ]
}
